Several values for one entry are separate records, joined by “and”; a condition that tells them apart may be missing. Identical values can stand only once. This list was built around the results that the source calls inconclusive (neither active nor inactive); the mix of calls is not that of the screen. For some of these results: A potency beside an inconclusive call is a rough fit, not a confirmed value. Activity calls are given as the source filed them. Unless noted, the call rests on the fitted dose curve; in most records, active means well fitted curve in the direction sought with a large enough effect; inconclusive means small, poorly fitted or top-dose-only effect, or another doubt; inactive means no such curve, though single readings can be large; an effect the other way counts as inactive or inconclusive.
Tests used:
[1] = qHTS of pediatric cancer cell lines to identify multiple opportunities for drug repurposing: Primary screen for SK-N-MC cells (AID 1347093); conditions: SK-N-MC viability, CellTiter-Glo luminescence, 48 h; activity change, negative = cytotoxic: at 46 µM (top of the series);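 on activity change, negative = cytotoxic: plate controls were DMSO neutral control for no effect and bortezomib for full effect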
How it was run: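 Metabolically active cells were quantified by ATP-dependent luminescence (CellTiter-Glo, 15 min at room temperature) following 48 h treatment. Cells had been plated at 500-1,000 per well and settled for 5 h beforehand.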

[2] = Primary qHTS for small molecule stabilizers of the endoplasmic reticulum resident proteome: Secreted ER Calcium Modulated Protein (SERCaMP) assay (AID 1508630); conditions: SH-SY5Y GLuc-SERCaMP (Gaussia luciferase released on ER calcium loss) secretion, thapsigargin, luminescence; activity change, negative = inhibition: at 38.4 µM (top of the series) unless noted
How it was run: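 GLuc-SERCaMP-expressing SH-SY5Y cells, pretreated 16 h with compound, are challenged with thapsigargin to empty ER calcium stores; after 4 h, coelenterazine is added directly to the medium and luminescence is imaged.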

[3] = molecular target: Cytochrome P450 2D6 (Homo sapiens) (UniProt P10635); assay: Cytochrome P450 family 2 subfamily D member 6 (CYP2D6) small molecule antagonists: luciferase biochemical (cell-free) qHTS assay (AID 1645840; active means well fitted curve in the direction sought with a large enough effect in the repeat runs; inconclusive means weak or mixed curves; inactive means no such curve, though single readings can be large; an effect the other way counts as inactive or inconclusive; further: nearly all actives have a fitted effect of over 55% in size; on activity change, negative = inhibition: on the % scale 0 is the no-effect control and ±100 the full control effect)
Chain of UniProt P10635 (P10635 whole entry, looked up): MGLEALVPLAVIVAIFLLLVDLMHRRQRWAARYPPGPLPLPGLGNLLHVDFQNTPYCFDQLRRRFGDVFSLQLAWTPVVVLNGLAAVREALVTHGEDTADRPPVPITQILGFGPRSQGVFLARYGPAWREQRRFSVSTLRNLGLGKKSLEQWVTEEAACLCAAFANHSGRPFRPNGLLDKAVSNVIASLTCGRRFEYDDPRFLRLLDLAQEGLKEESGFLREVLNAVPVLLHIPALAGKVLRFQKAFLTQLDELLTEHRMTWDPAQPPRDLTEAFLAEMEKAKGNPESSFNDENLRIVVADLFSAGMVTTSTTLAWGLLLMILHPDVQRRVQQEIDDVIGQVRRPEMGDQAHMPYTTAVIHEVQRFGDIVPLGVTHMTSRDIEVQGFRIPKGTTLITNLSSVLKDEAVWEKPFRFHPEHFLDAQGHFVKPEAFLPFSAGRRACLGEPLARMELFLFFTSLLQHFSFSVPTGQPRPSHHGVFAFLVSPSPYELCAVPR
How it was run: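 P450-Glo luminescent screen: recombinant CYP2D6 enzyme–proluciferin substrate mix preincubated with compound 10 min at room temperature, then NADPH regeneration added for 1 h at room temperature. Detection reagent added for 20 min; luciferin light read as relative luminescence units.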

[4] = Primary qHTS for inhibitors of nuclear receptor binding SET domain protein 2 (NSD2) in an RCH-ACV wild type WT cells (2C) (AID 1645877); conditions: activity change, negative = cell killing: at 44.9 µM (top of the series) unless noted; further: nearly all actives have a fitted effect of over 70% in size
[5] = system: CRL-7250; assay: Cytotoxic Profiling of Annotated Libraries Using Quantitative High-Throughput Screening (AID 1296008); conditions: Five cell lines viability, CellTiter-Glo ATP luminescence, 48-72 h; max response: stronger effect = lower value; further: nearly all actives have a fitted effect of over 60% in size; on max response: on the % scale 0 is the no-effect control and ±100 the full control effect
How it was run: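 Cells exposed to compounds for 48 or 72 hr at 37 degrees Celsius. Viability read as ATP-coupled luminescence with CellTiter-Glo after 10 min at room temperature.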

[6] = system: CAOV3; assay: Primary qHTS to identify gynecologic anti-cancer compounds using libraries of approved drugs and bioactive compounds (AID 1345084); conditions: Gynecologic cancer cell panel viability, ATPlite luminescence, 48 h; activity change, negative = cytotoxicity: at 57.5 µM (top of the series); further: nearly all actives have a fitted effect of over 55% in size; on activity change, negative = cytotoxicity: on the % scale 0 is the no-effect control and ±100 the full control effect
How it was run: (§1)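 Cells, 1,000 per well, were allowed to settle for 16 h at 37 C before compound addition. Five concentrations were tested for 48 h, and viability was read by ATPlite luminescence after 15 min at room temperature.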

[7] = system: OV90; assay: as above; conditions: Gynecologic cancer cell panel viability, ATPlite luminescence, 48 h; series mostly up to 57.5 µM
How it was run: as §1

[8] = system: SKOV3; assay: as above; conditions: Gynecologic cancer cell panel viability, ATPlite luminescence, 48 h; series mostly up to 57.5 µM
How it was run: as §1

[9] = molecular target: Cytochrome P450 2C9 (Homo sapiens) (UniProt P11712); assay: Cytochrome P450 family 2 subfamily C member 9 (CYP2C9) small molecule antagonists: luciferase biochemical (cell-free) qHTS assay (AID 1645842; active means well fitted curve in the direction sought with a large enough effect in the repeat runs; inconclusive means weak or mixed curves; inactive means no such curve, though single readings can be large; an effect the other way counts as inactive or inconclusive; further: nearly all actives have a fitted effect of over 55% in size)
Chain of UniProt P11712 (P11712 whole entry, looked up): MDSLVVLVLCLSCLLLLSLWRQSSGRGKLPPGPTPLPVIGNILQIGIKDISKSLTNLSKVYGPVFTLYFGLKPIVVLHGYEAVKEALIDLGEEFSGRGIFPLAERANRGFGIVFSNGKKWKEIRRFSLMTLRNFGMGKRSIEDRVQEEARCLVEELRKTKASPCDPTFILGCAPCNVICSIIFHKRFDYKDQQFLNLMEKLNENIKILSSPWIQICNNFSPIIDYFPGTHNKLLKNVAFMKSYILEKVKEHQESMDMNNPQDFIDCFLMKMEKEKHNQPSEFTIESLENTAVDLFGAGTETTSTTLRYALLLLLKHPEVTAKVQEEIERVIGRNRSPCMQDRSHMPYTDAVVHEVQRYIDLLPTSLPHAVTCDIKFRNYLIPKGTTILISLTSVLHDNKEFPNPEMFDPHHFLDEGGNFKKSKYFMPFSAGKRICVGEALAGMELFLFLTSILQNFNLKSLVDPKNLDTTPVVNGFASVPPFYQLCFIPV
How it was run: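 Luminescence, after 20 min with luciferin detection reagent, reflected CYP2C9 turnover during a 1 h NADPH-driven reaction at 37C. Enzyme-substrate mix contained 0.4% bovine serum albumin and was preincubated with compound 10 min at room temperature.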

[10] = Primary qHTS for inhibitors of nuclear receptor binding SET domain protein 2 (NSD2) in an isogenic RCH-ACV NSD2 p.E1099K mutant (9B) (AID 1645876); further: nearly all actives have a fitted effect of over 70% in size
[11] = P-glycoprotein substrates identified in KB-8-5-11 adenocarcinoma cell line, qHTS therapeutic library screen (AID 1346987); further: nearly all actives have a fitted effect of over 65% in size
How it was run: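 KB-8-5-11, a colchicine-selected P-gp-overexpressing KB-3-1 subline, was grown without colchicine for the assay. Cells were seeded at 500 cells/well, dosed in concentration-response and incubated 72 h at 37 degree C, 5% CO2. Viability was read by CellTiter-Glo luminescence.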

[12] = system: Hek293T; assay: Primary qHTS to identify gynecologic anti-cancer compounds using libraries of approved drugs and bioactive compounds (AID 1345084); conditions: Gynecologic cancer cell panel viability, ATPlite luminescence, 48 h, control line for the selectivity index; activity change, negative = cytotoxicity: at 57.5 µM (top of the series) unless noted; further: nearly all actives have a fitted effect of over 55% in size; on activity change, negative = cytotoxicity: on the % scale 0 is the no-effect control and ±100 the full control effect
How it was run: as §1

[13] = system: Tov-21-G; assay: as above; conditions: Gynecologic cancer cell panel viability, ATPlite luminescence, 48 h; activity change, negative = cytotoxicity: at 57.5 µM (top of the series) unless noted
How it was run: as §1

[14] = system: CASKI; assay: as above; conditions: Gynecologic cancer cell panel viability, ATPlite luminescence, 48 h; series mostly up to 57.5 µM
How it was run: as §1
Potency means the concentration at half of the fitted maximal effect; tags describe the fitted curve by direction and shape.

CC(C)(C)C1CCC(CC2=C(O)c3ccccc3C(=O)C2=O)CC1 (stereo not drawn)
Potency [1]: active: 5.31 µM
Potency [2]: inconclusive: 2.82 µM [inhibitor, full curve, poor fit]
Potency [3]: inactive
Potency [4]: active: 9.44 µM
max response [5]: inactive: -5.3%
Potency [6]: inactive
Potency [7]: inconclusive: 3.55 µM [cytotoxic, single point]
Potency [8]: inconclusive: 25.1 µM [cytotoxic, single point]

CCOC(=O)c1cc(=O)c2c(OCC(COc3cccc4oc(C(=O)OCC)cc(=O)c34)OC(=O)[C@@H](N)CCCCN)cccc2o1
Potency [1]: inconclusive: 33.5 µM [cytotoxic, single point]
Potency [2]: inconclusive: 31.6 µM [inhibitor, single point]
Potency [3]: inconclusive: 19.5 µM [inhibitor, partial curve, poor fit]
Potency [9]: inconclusive: 5.49 µM [inhibitor, partial curve, poor fit]
Potency [10]: inactive
Potency [5]: inconclusive: 18.8 µM [inhibitor, single point]
Potency [6]: inactive
Potency [8]: inactive

N#CSCC(=O)O
Potency [1]: inactive
Potency [2]: inconclusive: 1 µM [inhibitor, full curve]
Potency [9]: inactive
Potency [10]: inconclusive: 21.1 µM [inhibitor, single point]
Potency [4]: inconclusive: 29.9 µM [inhibitor, single point]
Potency [5]: inconclusive: 4.22 µM [inhibitor, single point]
Potency [8]: inconclusive: 0.631 µM [rising, partial curve, poor fit]

CCCCCCCCCCCCCCCCCCCCCCO
Potency [2]: inactive
outcome [5]: inactive

Cc1nc2n(c(=O)c1CCN1CCC(C(=O)c3ccc(F)cc3)CC1)CCS2
Potency [1]: inactive
Potency [2]: inconclusive: 12.6 µM [inhibitor, partial curve, poor fit]
Potency [10]: inconclusive: 13.3 µM [inhibitor, partial curve, poor fit]
Potency [4]: inconclusive: 18.8 µM [inhibitor, partial curve]
Potency [5]: active: 9.44 µM
Potency [7]: inconclusive: 10 µM [cytotoxic, partial curve, poor fit]
Potency [8]: inactive

CC(=O)Nc1ccc(S(=O)(=O)Nc2ccc([N+](=O)[O-])cc2)cc1
max response [5]: inactive: -4.42%

CN(C)CCC=C1c2ccccc2CCc2ccccc21
Potency [11]: inconclusive: 29.1 µM [inhibitor, single point]
Potency [1]: inconclusive: 26.6 µM [cytotoxic, single point]
Potency [2]: inconclusive: 10 µM [inhibitor, partial curve, poor fit] and inconclusive: 28.2 µM [inhibitor, single point]
Potency [10]: inconclusive: 29.9 µM [inhibitor, single point]
Potency [4]: inconclusive: 33.5 µM [inhibitor, single point]
Potency [5]: inconclusive: 29.9 µM [inhibitor, single point]
Potency [12]: inconclusive: 39.8 µM [cytotoxic, single point]
Potency [7]: inconclusive: 8.91 µM [cytotoxic, partial curve, poor fit]
Potency [13]: inactive

COC(=O)N/N=C/c1c[n+]([O-])c2ccccc2[n+]1[O-]
Potency [2]: inconclusive: 2.82 µM [inhibitor, full curve, poor fit]
Potency [3]: inactive
Potency [10]: active: 23.7 µM
max response [5]: inactive: 4.42%
Potency [14]: inactive

COc1ccc2nc(SCc3ncc(C)c(OC)c3C)[nH]c2c1
Potency [10]: inconclusive: 23.7 µM [inhibitor, partial curve, poor fit]
activity change, negative = cell killing [4]: inconclusive: -38.2% [inhibitor]
Potency [5]: inconclusive: 3.76 µM [inhibitor, single point]
Potency [7]: inactive

CC(=O)N[C@@H](CS)C(=O)O
Potency [2]: inconclusive: 31.6 µM [inhibitor, partial curve, poor fit] and inactive
max response [5]: inactive: -25.8%
Potency [12]: inactive
Potency [7]: inactive

CC(=O)O[C@@H]1CC2C3CCc4cc(OC(=O)c5ccccc5)ccc4C3CCC2(C)[C@H]1OC(C)=O (stereo partly drawn)
Potency [2]: inconclusive: 31.6 µM [inhibitor, partial curve, poor fit]
max response [5]: inactive: -8.96%

C[C@H]1COc2c(C3(N)CC3)c(F)cc3c(=O)c(C(=O)O)cn1c23
Potency [11]: inactive
Potency [1]: inactive
max response [5]: inactive: 2.54%
Potency [8]: inactive

O=C1Nc2cc(Cl)ccc2Oc2ccccc21
Potency [5]: inconclusive: 33.5 µM [inhibitor, partial curve, poor fit]

O=C(NCN1CCOCC1)c1cnccn1
Potency [2]: inconclusive: 25.1 µM [inhibitor, single point]
Potency [3]: inactive
Potency [10]: inactive
Potency [4]: inconclusive: 29.9 µM [inhibitor, single point]
max response [5]: inactive: 3.76%

COc1ccc(S(=O)(=O)Nc2nnc(CC(C)C)s2)cc1
Potency [11]: inactive
Potency [3]: inactive
Potency [10]: inactive
max response [5]: inactive: 0.202%
Potency [7]: inactive
Potency [8]: inconclusive: 39.8 µM [rising, single point]

Source: PubChem BioAssay (NCATS)
